According to PubChem BioAssay AID463173 (ICCB-Longwood Screening Facility, Harvard Medical School, 2010):
In all, about 52,000 compounds went through this assay and about 1,700 (3.3%) were called active. No stated cut-off is given here; in the data, active means survival mostly below about 52% (no sharp cut-off); inactive means mostly above about 56%. Some of the results follow.

The compounds below were run on Wild type (assay: growth inhibition of S. aureus wild type versus tarO mutant, primary screen, teichoic acid synthesis inhibitors, RN4220, OD600 (AID 463173)). Conditions: S. aureus RN4220 wild type/DeltatarO growth, OD600, 18 h, hits give low values, screened at 18.75 µg/mL (by protocol).
For `O=c1c(-c2cc(-c3ccc(F)cc3)nc3c2COc2ccc(Cl)cc2-3)coc2ccc(F)cc12`, the survival was inactive: 70%.
With `O=C(CCCCCn1c(=O)[nH]c2ccccc2c1=O)N1CCN(c2ccc(Cl)cc2)CC1` the survival was inactive: 85%.
`COc1cc2c(cc1OC)C(COc1cc(C)cc(C)c1)N(C(=O)c1ccc(S(=O)(=O)N3CCCC3)cc1)CC2` (centres undefined) was tested, and the survival was inactive: 45%.
`O=C1c2ccccc2N(Cc2ccc(Cl)cc2)C2=NCCN12` was tested, and the survival was inactive: 99%.
With `O=C(CSc1nc2c([nH]c3ccccc32)c(=O)n1-c1cccc(Cl)c1)NCc1ccccc1` the survival was inactive: 78%.
`CC(C)C1Oc2ccccc2N(CC(=O)N(Cc2ccccn2)C2CC2)C1=O` (centres undefined) was tested, and the survival was inactive: 111%.
In the case of `COC(=O)c1ccc(CNC(=O)c2nc(Cn3nc(C)c(Br)c3C)no2)cc1`, the survival is reported as inactive: 78%.
In the case of `CCc1nc2ccc(C(=O)N3CCN(c4cccc(OC)c4)CC3)cc2nc1CC`, the survival is reported as inactive: 92%.
`CCc1nnc(NC(=O)CSc2nc3c([nH]c4ccccc43)c(=O)n2-c2ccc(C)cc2)s1` was tested, and the survival was inactive: 124%.
With `CCOC(=O)C1CCCN(C(=O)Cn2ncc3c4ccccc4n(Cc4ccc(F)cc4)c3c2=O)C1` (centres undefined) the survival was inactive: 138%.
For `O=C(COc1ccccc1)Nc1sc2c(c1C(=O)Nc1ccccc1)CCCCC2`, the survival was inactive: 101%.
For `Cc1ccc(C)c(-c2ccc(=O)n(Cc3ccc(F)cc3Cl)n2)c1`, the survival was inactive: 59%.
In the case of `CCN(CC)c1ccc(C(=O)Nc2ccc3nc(N(CC)CC)cc(C)c3c2)cc1`, the survival is reported as inactive: 71%.
For `CCOC(=O)CNC(=O)CC(c1cc(OC)c(OC)c(OC)c1)N1Cc2ccccc2C1=O` (centres undefined), the survival was inactive: 60%.
With `CCOC(=O)c1ccc(NC(=O)CCn2c(=O)oc3ccccc32)cc1` the survival was inactive: 133%.
`CN(Cc1ccccc1)C(=O)Cn1c(=O)c2cccn2c2ccc(F)cc21` was tested, and the survival was inactive: 81%.
In the case of `Cc1ccc2[nH]c(CSc3nnc(NC(=O)COc4ccccc4Cl)s3)cc(=O)c2c1`, the survival is reported as inactive: 84%.
`Cc1ccc(CNC(=O)c2sc3ncnc(N(C)C4CCCCC4)c3c2C)cc1` was tested, and the survival was inactive: 81%.
For `CC(C)N(C(=O)CNCc1cccs1)C(C)C`, the survival was inactive: 111%.
In the case of `CCc1ccc(NC(=O)C2CCCN(S(=O)(=O)c3cccc4cccnc34)C2)cc1` (centres undefined), the survival is reported as inactive: 85%.
`O=S(=O)(NCC(c1ccco1)N1CCOCC1)c1ccc(Cl)cc1` (centres undefined) was tested, and the survival was inactive: 93%.
For `COc1ccc(Nc2c(-c3ccco3)nc3cccc(C)n23)cc1`, the survival was inactive: 97%.
With `O=C(Nc1ccccc1C(F)(F)F)Nc1c[nH]c(=O)[nH]c1=O` the survival was inactive: 68%.
In the case of `COc1cc(OC)c(OC)cc1CN1CCc2nc(N3CCN(c4ccccc4F)CC3)ncc2C1`, the survival is reported as inactive: 64%.
For `Cc1ccc2c(C)c(C(=O)N3CCC(c4nc5ccccc5s4)CC3)oc2c1C`, the survival was inactive: 88%.
For `COc1ccc(C2C=C(c3ccccc3)Nc3nc(NS(=O)(=O)c4ccc(C)cc4)nn32)cc1` (centres undefined), the survival was inactive: 66%.
With `Cc1ccc(OCC(=O)N(Cc2ccc(Cl)cc2)CC2CCCO2)cc1C` (centres undefined) the survival was inactive: 71%.
With `CNC(=S)N1CCN(c2cccc(C)c2C)CC1` the survival was inactive: 102%.
With `Cc1c(C(=O)OC2CCCCC2)[nH]c2c1C(=O)CC(c1ccccc1)C2` (centres undefined) the survival was inactive: 88%.
With `CCN(CC)S(=O)(=O)c1ccc2c(c1)N(CC(=O)NCc1ccc(F)cc1)C(=O)CO2` the survival was inactive: 73%.
With `Cc1cc(N2CCN(c3cccc(C(F)(F)F)c3)CC2)n2nc(-c3ccccc3C)nc2n1` the survival was active: 11%.
In the case of `CCCOc1ccc(C2C(=O)N(C3CCCCCC3)CC(=O)N2Cc2ccc(OC)cc2)cc1OC` (centres undefined), the survival is reported as inactive: 64%.
For `CC(C)=CCCC1=CCC2C(=O)NNC(=O)C2C1` (centres undefined), the survival was inactive: 107%.
In the case of `Cc1ccc2oc(=O)c3cnn(CC(=O)N4CCN(c5cccc(C(F)(F)F)c5)CC4)c3c2c1`, the survival is reported as inactive: 85%.
`CCC(C)NC(=O)CSc1nc2c(sc3ccccc32)c(=O)n1CCc1ccccc1` (centres undefined) was tested, and the survival was inactive: 87%.
With `O=S(=O)(c1cccc(C(F)(F)F)c1)N1CCC(Oc2ccc(-n3cnnn3)cc2)CC1` the survival was inactive: 81%.
`COc1cccc(NC(=O)Cn2c(=O)n(Cc3ccccc3)c(=O)c3c2c2cc(C)ccc2n3C)c1` was tested, and the survival was inactive: 72%.
In the case of `COc1ccc(NC(=O)C2=C(C)Nc3c(C(=O)Nc4ccc(C)cc4)cnn3C2c2cc(OC)ccc2OC)cc1` (centres undefined), the survival is reported as inactive: 76%.
For `Cc1cc(C)c2oc(-c3cc(NC(=O)Cc4ccccc4)ccc3Cl)nc2c1`, the survival was inactive: 45%.
In the case of `N#Cc1c(N)n[nH]c1-c1cc2c([nH]1)CCCC2`, the survival is reported as inactive: 104%.
`CN(C)c1ccc(C2CC(c3c(O)n(C4CCCCC4)c(=O)[nH]c3=O)=Nc3ccccc3S2)cc1` (centres undefined) was tested, and the survival was inactive: 85%.
`CCCN1CCc2nc(SCC(=O)Nc3ccc(C)c(Cl)c3)[nH]c(=O)c2C1` was tested, and the survival was inactive: 99%.
With `c1ccc(CSc2nnc(C3CCNCC3)o2)cc1` the survival was inactive: 89%.
`CCOc1ccc(C(=O)N2CCC(c3nc(-c4ccc(S(=O)(=O)N5CCCC5)cc4)no3)CC2)cc1` was tested, and the survival was inactive: 94%.
In the case of `Cc1cc2c(cc(C(=O)OC(C(=O)NCC3CCCO3)C(C)C)n2C)o1` (centres undefined), the survival is reported as inactive: 120%.
For `C1=CCC(CN2CCN(Cc3ccccc3)CC2)CC1` (centres undefined), the survival was inactive: 111%.
`CC(=O)Nc1nc2ccccc2n1Cc1ccc(C)cc1` was tested, and the survival was inactive: 96%.
In the case of `COC(=O)c1ccc(NC(=O)CCn2cccn2)cc1`, the survival is reported as inactive: 88%.
`Cc1ccc(C(C)C)c(OCC(=O)Nc2cccc(-c3nc4ncccc4o3)c2)c1` was tested, and the survival was active: 2%.
`O=c1[nH]c2ccc(NCc3ccc(-c4ccccc4F)o3)cc2[nH]1` was tested, and the survival was inactive: 88%.
`CCOc1ccc(-c2cc3c(=O)n(Cc4nc(-c5ccc(OC)cc5OC)oc4C)ccn3n2)cc1Cl` was tested, and the survival was inactive: 158%.
For `COc1cccc(Oc2nc3c(c(=O)n(Cc4ccccc4Cl)c(=O)n3C)n2C)c1`, the survival was inactive: 77%.
For `O=C(NC1CCCCC1)c1cccs1`, the survival was inactive: 116%.
`CCOc1ccc(NC(=O)N(Cc2ccc(CC)cc2)Cc2cn[nH]c2-c2ccc(OC)cc2)cc1` was tested, and the survival was inactive: 73%.
With `COc1ccc(CNC(=O)c2ccc3c(c2)N(Cc2ccccc2)C(=O)c2ccccc2S3=O)cc1` (centres undefined) the survival was inactive: 88%.
`CCc1ccccc1OCCSc1nc(-c2cccs2)nc2cc(=O)[nH]n12` was tested, and the survival was inactive: 110%.
In the case of `CN(C)CCCNc1ncnc2ccc(Br)cc12`, the survival is reported as inactive: 100%.
In the case of `COc1ccccc1NC(=O)c1nnn(-c2ccc(F)cc2)c1C`, the survival is reported as inactive: 65%.
In the case of `Cc1cc(F)ccc1NC(=O)C(C(C)C)N1Cc2ccccc2C1=O` (centres undefined), the survival is reported as inactive: 120%.
For `CC(=O)Nc1ccc(S(=O)(=O)NC2=NCN(C(C)C)CN2)cc1`, the survival was inactive: 143%.
`COc1ccc(C(=O)N2CC(=O)Nc3ccc(C)cc3C2c2ccc(F)cc2)c(OC)c1` (centres undefined) was tested, and the survival was inactive: 143%.
In the case of `O=c1c(-c2cc(-c3ccc(Cl)cc3)nc3c2COc2ccccc2-3)coc2ccccc12`, the survival is reported as inactive: 102%.
With `CN(CC(=O)NCc1ccccc1Cl)S(=O)(=O)c1ccc2c(c1)c(=O)n(C)c(=O)n2C` the survival was inactive: 122%.
For `Cc1ccc(Cl)cc1N1CCN(C(=O)Cc2c(C(=O)O)c(C)cn2C)CC1`, the survival was inactive: 55%.
For `Cc1sc2ncn(CC(=O)N3CCN(c4ccccc4F)CC3)c(=O)c2c1S(=O)(=O)N1CCN(c2ncccn2)CC1`, the survival was inactive: 95%.
In the case of `CC(C)CC(NC(N)=O)C(=O)O` (centres undefined), the survival is reported as inactive: 101%.
For `CCC(=O)N1CCc2cc(Br)cc(S(=O)(=O)CCC(=O)NCCc3ccc(C)cc3)c21`, the survival was inactive: 130%.
For `CCc1ccc(CNC(=O)c2cnc(N3CCCCC3)c3ccccc23)cc1`, the survival was inactive: 69%.
With `COc1ccc(S(=O)(=O)Nc2cccc(-c3ccc(N4CCCCCC4)nn3)c2)cc1F` the survival was inactive: 71%.
In the case of `COc1ccc(CCNC(=O)C(=O)Nc2ccc(C)c(C)c2)cc1`, the survival is reported as inactive: 75%.
For `Cc1cccc2cc(CN(C(=O)c3ccncc3)C3CCCC3)c3nnnn3c12`, the survival was inactive: 88%.
`O=C(CSc1nc2c(c(=O)[nH]1)CCCC2)Nc1ccccc1C(F)(F)F` was tested, and the survival was inactive: 80%.
In the case of `CC(C)c1ccc(S(=O)(=O)c2cn(CC(=O)Nc3ccc(F)cc3)c3ccccc3c2=O)cc1`, the survival is reported as inactive: 55%.
For `CC1CCN(S(=O)(=O)c2cc(C(=O)NCc3ccc(N(C)C)cc3)n(C)c2)CC1`, the survival was inactive: 78%.
For `O=C(Nc1cccc(C(F)(F)F)c1)c1cccs1`, the survival was inactive: 116%.
With `O=C(CN1C(=O)CC(c2ccco2)Sc2ccccc21)Nc1cccc(C(F)(F)F)c1` (centres undefined) the survival was inactive: 106%.
`CCOc1ccc(NC(=O)Cn2c(=O)cc(C)c3c(C)nn(C)c32)cc1` was tested, and the survival was inactive: 71%.
For `Cc1ccc(NC(=O)CCN2CC(C)CC(C)C2)cc1` (centres undefined), the survival was inactive: 93%.
`Cc1ccccc1CN1c2ccccc2-c2nc(SCC(=O)c3ccc(Cl)cc3)ncc2S1(=O)=O` was tested, and the survival was inactive: 71%.
`Cc1csc2nc(-c3cccc(NS(C)(=O)=O)c3)cn12` was tested, and the survival was inactive: 85%.
With `COCCCNC(=O)CCCN1C(=O)CCn2nc(-c3cccn3C)cc21` the survival was inactive: 99%.
`CCc1ccccc1NC(=O)Cn1c(=O)n(Cc2ccccc2)c(=O)c2c(C)c(C(=O)N(C)C)sc21` was tested, and the survival was inactive: 60%.
In the case of `CC(=O)NC1(NC(C)=O)CC(c2ccccc2)N(C)CC1C` (centres undefined), the survival is reported as inactive: 100%.
In the case of `Cc1csc2nc(-c3ccc(NS(=O)(=O)c4cccc(F)c4)cc3)cn12`, the survival is reported as inactive: 72%.
With `Cc1ccc(-c2nc(C)c(CCNC(=O)C(=O)Nc3cc(C)ccc3C)s2)cc1` the survival was inactive: 57%.
`CCOC(=O)c1c(NC(=S)NC(=O)c2c(I)cnn2C)sc2c1CCC(C)C2` (centres undefined) was tested, and the survival was inactive: 106%.
In the case of `CCCOc1ccc(C2=NC(c3ccncc3)=Nc3ccc(C)cc3N2)cc1`, the survival is reported as inactive: 56%.
`Cc1ccc(-c2n[nH]c3c2C(c2ccccc2Cl)N(c2ccc(C(=O)O)cc2)C3=O)cc1` (centres undefined) was tested, and the survival was inactive: 84%.
With `Cc1ccc(N2C(=O)SC(N(CC(=O)O)c3ccccc3)C2=O)cc1` (centres undefined) the survival was inactive: 112%.
